Source: the supplement of paper PMC8728848
The other results are listed elsewhere or left out.

Columns and labels:
Assay in all cases: glycan array binding signal (z-score within array); higher = stronger binding
Settings in all cases: glycan notation: IUPAC condensed, linker removed
[1] = target: Neu5Ac(a2-3)Gal(b1-4)GlcNAc(b1-3)[Neu5Ac(a2-3)Gal(b1-4)GlcNAc(b1-6)]GalNAc
In short: (§1)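 The Consortium for Functional Glycomics database supplied 3228 glycan arrays, of which those lacking an available protein sequence were dropped. The binding signal, a within-array Z-score, was averaged across arrays of the same protein sequence and across linkers. Negative scores can be read as non-binding.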

[2] = target: Neu5Ac(a2-3)Gal(b1-4)GlcNAc(b1-6)GalNAc
In short: as §1

[3] = target: Neu5Ac(a2-3)Gal(b1-4)GlcNAc(b1-6)[Gal(b1-3)]GalNAc
In short: as §1

[4] = target: Neu5Ac(a2-3)Gal(b1-4)GlcNAc(b1-6)[Neu5Ac(a2-3)Gal(b1-3)]GalNAc
In short: as §1

[5] = target: Neu5Ac(a2-3)Gal(b1-4)GlcNAc6S
In short: as §1

[6] = target: Neu5Ac(a2-3)Gal(b1-4)[Fuc(a1-3)]GlcNAc
In short: as §1

[7] = target: Neu5Ac(a2-3)Gal(b1-4)[Fuc(a1-3)]GlcNAc(b1-2)Man
In short: as §1

[8] = target: Neu5Ac(a2-3)Gal(b1-4)[Fuc(a1-3)]GlcNAc(b1-3)Gal
In short: as §1

[9] = target: Neu5Ac(a2-3)Gal(b1-4)[Fuc(a1-3)]GlcNAc(b1-3)Gal(b1-4)GlcNAc
In short: as §1

[10] = target: Neu5Ac(a2-3)Gal(b1-4)[Fuc(a1-3)]GlcNAc(b1-3)Gal(b1-4)[Fuc(a1-3)]GlcNAc(b1-3)Gal(b1-4)[Fuc(a1-3)]GlcNAc
In short: as §1

[11] = target: Neu5Ac(a2-3)Gal(b1-4)[Fuc(a1-3)]GlcNAc(b1-3)GalNAc
In short: as §1

[12] = target: Neu5Ac(a2-3)Gal(b1-4)[Fuc(a1-3)]GlcNAc(b1-6)[Gal(b1-3)]GalNAc
In short: as §1

[13] = target: Neu5Ac(a2-3)Gal(b1-4)[Fuc(a1-3)]GlcNAc(b1-6)[Neu5Ac(a2-3)Gal(b1-3)]GalNAc
In short: as §1

[14] = target: Neu5Ac(a2-3)Gal(b1-4)[Fuc(a1-3)]GlcNAc6S
In short: as §1

[15] = target: Neu5Ac(a2-3)Gal6S(b1-4)GlcNAc
In short: as §1

[16] = target: Neu5Ac(a2-3)Gal6S(b1-4)[Fuc(a1-3)]GlcNAc
In short: as §1

Neu5Ac(a2-3)GalNAc = target: Neu5Ac(a2-3)GalNAc
In short: as §1

[17] = target: Neu5Ac(a2-3)GalNAc(b1-4)GlcNAc
In short: as §1

[18] = target: Neu5Ac(a2-3)[GalNAc(b1-4)]Gal(b1-4)Glc
In short: as §1

[19] = target: Neu5Ac(a2-3)[GalNAc(b1-4)]Gal(b1-4)GlcNAc
In short: as §1

[20] = target: Neu5Ac(a2-3)[GalNAc(b1-4)]Gal(b1-4)GlcNAc(b1-3)GalNAc
In short: as §1

[21] = target: Neu5Ac(a2-3)[Neu5Ac(a2-6)]GalNAc
In short: as §1

Neu5Ac(a2-6)Gal = target: Neu5Ac(a2-6)Gal
In short: as §1

[22] = target: Neu5Ac(a2-6)Gal(b1-3)GlcNAc(b1-3)[Gal(b1-4)GlcNAc(b1-6)]Gal(b1-4)Glc
In short: as §1

Neu5Ac(a2-6)Gal(b1-4)Glc = target: Neu5Ac(a2-6)Gal(b1-4)Glc
In short: as §1

[23] = target: Neu5Ac(a2-6)Gal(b1-4)GlcNAc
In short: as §1

[24] = target: Neu5Ac(a2-6)Gal(b1-4)GlcNAc(b1-2)Man
In short: as §1

[25] = target: Neu5Ac(a2-6)Gal(b1-4)GlcNAc(b1-2)Man(a1-3)Man(b1-4)GlcNAc(b1-4)GlcNAc
In short: as §1

[26] = target: Neu5Ac(a2-6)Gal(b1-4)GlcNAc(b1-2)Man(a1-3)[Gal(b1-4)GlcNAc(b1-2)Man(a1-6)]Man(b1-4)GlcNAc(b1-4)GlcNAc
In short: as §1

[27] = target: Neu5Ac(a2-6)Gal(b1-4)GlcNAc(b1-2)Man(a1-3)[GlcNAc(b1-2)Man(a1-6)]Man(b1-4)GlcNAc(b1-4)GlcNAc
In short: as §1

[28] = target: Neu5Ac(a2-6)Gal(b1-4)GlcNAc(b1-2)Man(a1-3)[GlcNAc(b1-4)][Neu5Ac(a2-6)Gal(b1-4)GlcNAc(b1-2)Man(a1-6)]Man(b1-4)GlcNAc(b1-4)GlcNAc
In short: as §1

B1: AT5G01260(PC)(40) (Arabidopsis thaliana), Q9LFB0 (protein)
chain: MIGIGRTLTSSSPSKIILEDLPPGIYRYGTEIFTSVPRKTFHHIKFLRLDSAQSSRILKPVPLRSSSIKDSQVNVEDEEIEASNKTVRVRFQLRKECVFGEHFFIVGDDPVFGGLWDPETALPLNWSDGNVWTVDLDLPVGRLVEFKLLLKAQTGEILWQPGPNRALETWETNKTIRICEDWDNADLQMMIEEDFVPYTNISSIGSEDEDEVLGSVQQNSSVVAVENAGYVSDESAQNSSFSIQSEKTMEPSNGALTAREVIKEAMFTEEESPVLVPGLIPLSDLDNEQVEVINEGKAETFPEVDKKQEPKAERNKKAKVKAISLFEKSEQEAVKSVEQRQYNAVEEEQQRLETEPLGTPDVLFENDIQWGRRTLYKLLSNFRLF
For B1, the “glycan array binding signal (z-score)” value [1] was 0.651, the “glycan array binding signal (z-score)” value [2] was 1.01 and the “glycan array binding signal (z-score)” value [3] was -0.164. The “glycan array binding signal (z-score)” value [4] was 0.292, the “glycan array binding signal (z-score)” value [5] was -0.356 and the “glycan array binding signal (z-score)” value [6] was 0.029. For the same binder, the “glycan array binding signal (z-score)” value [7] was -0.543, the “glycan array binding signal (z-score)” value [8] was 0.393 and the “glycan array binding signal (z-score)” value [9] was 0.142. For the same binder, the “glycan array binding signal (z-score)” value [10] was -0.136, the “glycan array binding signal (z-score)” value [11] was 0.824 and the “glycan array binding signal (z-score)” value [12] was 0.282. The “glycan array binding signal (z-score)” value [13] was -0.662, the “glycan array binding signal (z-score)” value [14] was -0.047 and the “glycan array binding signal (z-score)” value [15] was -0.571. The “glycan array binding signal (z-score)” value [16] was -0.421, the “glycan array binding signal (z-score)” value (Neu5Ac(a2-3)GalNAc) was -0.206 and the “glycan array binding signal (z-score)” value [17] was 0.241. The “glycan array binding signal (z-score)” value [18] was -0.687, the “glycan array binding signal (z-score)” value [19] was -0.464 and the “glycan array binding signal (z-score)” value [20] was 0.199. The “glycan array binding signal (z-score)” value [21] was -0.23, the “glycan array binding signal (z-score)” value (Neu5Ac(a2-6)Gal) was -0.313 and the “glycan array binding signal (z-score)” value [22] was -0.171. For the same binder, the “glycan array binding signal (z-score)” value (Neu5Ac(a2-6)Gal(b1-4)Glc) was -0.088, the “glycan array binding signal (z-score)” value [23] was -0.043 and the “glycan array binding signal (z-score)” value [24] was 0.013. The “glycan array binding signal (z-score)” value [25] was 0.028, the “glycan array binding signal (z-score)” value [26] was 0.086 and the “glycan array binding signal (z-score)” value [27] was -0.106. For the same binder, the “glycan array binding signal (z-score)” value [28] was -0.702.
